Test results from PubChem BioAssay AID485294 (National Center for Advancing Translational Sciences (NCATS), 2010).
About 150 (0.041%) of roughly 370,000 compounds were called active. The inconclusive results got no clear call from the source; some entries with a clear call stand among them for comparison. The call rests on the fitted dose curve; in most records, active means well fitted inhibition curve with a large enough effect; inconclusive means small, poorly fitted or top-dose-only effect; inactive means flat fitted curve, though single readings scatter. Potencies of inconclusive entries are left out as doubtful fits.

molecular target: Beta-lactamase (Escherichia coli (strain K12)) (UniProt P00811); assay: qHTS Inhibitors of AmpC Beta-Lactamase (assay with detergent); details: AmpC hydrolysis of nitrocefin, absorbance 480 nm, 0.01% Triton; series mostly up to 114 µM; further: nearly all actives have a fitted effect of over 25% in size
How it was run: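 AmpC (5.3 nM in the dispensed reagent) in 20 mM phosphate pH 7.0 with 0.01% (detergent screen) or 0.0001% Triton X-100 was preincubated with compounds for 15 min at room temperature. Nitrocefin was then added from an 800 uM solution, and hydrolysis was followed at 480 nm.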
Potency means the concentration at half of the fitted maximal effect; tags describe the fitted curve by direction and shape.

Chain of UniProt P00811 (P00811 whole entry, looked up): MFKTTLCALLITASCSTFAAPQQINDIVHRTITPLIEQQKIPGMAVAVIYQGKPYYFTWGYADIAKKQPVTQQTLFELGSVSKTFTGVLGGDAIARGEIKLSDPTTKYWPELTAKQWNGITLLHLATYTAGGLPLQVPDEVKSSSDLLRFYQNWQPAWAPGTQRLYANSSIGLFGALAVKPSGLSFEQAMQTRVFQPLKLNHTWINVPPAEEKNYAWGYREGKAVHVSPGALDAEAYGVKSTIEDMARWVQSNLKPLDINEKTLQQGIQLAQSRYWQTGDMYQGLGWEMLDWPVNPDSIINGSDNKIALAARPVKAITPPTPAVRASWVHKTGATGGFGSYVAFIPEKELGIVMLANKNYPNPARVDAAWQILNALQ

Structure (SMILES) | Potency
CC1(C)N=C(SCc2ccc(F)cc2)c2ccccc2N1 | inactive
CN1CCN(c2ccc([N+](=O)[O-])cc2C(=O)c2ccc(Cl)cc2)CC1 | inactive
COc1ccc(OC)c(C(=O)NC(CC(N)=O)c2ccc(NCCN3CCCC3)c([N+](=O)[O-])c2)c1 (stereo not given) | inconclusive [inhibitor, full curve, poor fit]
O=C(O)c1cccc(C(=O)O)n1 | inconclusive [inhibitor, full curve, poor fit]
Cc1ccc(Cl)cc1NC(=O)CSc1nc2ccccc2c2nc(-c3ccccc3)nn12 | inactive
COc1ccc2[nH]c3c(c2c1)CCn1c-3nc2ccccc2c1=O | inconclusive [inhibitor, single point]
Nn1c(SCc2nc3ccccc3[nH]2)nnc1C1CCCCC1 | inconclusive [inhibitor, full curve, poor fit]
Cc1cc(C(=O)CN2C(=O)NC3(CCCCC3)C2=O)c(C)n1C | inconclusive [inhibitor, full curve, poor fit]
COC(=O)COc1cccc2c(=O)n(CC(=O)N3CCCc4ccccc43)ccc12 | inconclusive [inhibitor, full curve, poor fit]
CCCc1nc2ccccc2c(=O)n1-c1c(C)n(C)n(-c2ccccc2)c1=O | inconclusive [inhibitor, full curve]
COc1ccc(CN(C)C(=O)c2ccc(NC(=O)CC3SC(N4CCCC4)=NC3=O)cc2)c(OC)c1OC (stereo not given) | inactive
COCCOC1CCN(C(=O)c2cc(COc3ccc(F)cc3F)on2)CC1 | inactive
COc1ccc(CNC(=O)CCc2nc(-c3ccccc3F)no2)c(OC)c1 | inconclusive [inhibitor, full curve, poor fit]
COc1ccc(-n2c(Cc3cccn3C)nnc2SCC(=O)NC2CCCCC2)cc1 | inconclusive [inhibitor, full curve, poor fit]
Nc1nc(COC(=O)c2ccc3c(c2)OCCO3)nc(Nc2ccccc2)n1 | inactive
O=C(CSc1nc2ncccc2[nH]1)Nc1cc(F)ccc1F | inactive
O=C(CCn1c(=O)c2cccn2c2cccnc21)NCc1ccccc1Cl | inconclusive [inhibitor, single point]
O=C(OCCNc1nc(-c2ccccc2)nc2ccccc12)c1cccnc1 | inactive
O=c1[nH]c(CN(CCO)CCO)nc2c1C1(CCCCC1)Cc1ccccc1-2 | inconclusive [inhibitor, partial curve, poor fit]
O=C(CN1CCC(O)(c2ccccc2F)CC1)NCCc1c[nH]c2ccccc12 | inconclusive [inhibitor, single point]
CCCNC(=O)Cn1cnc2sc(C(=O)N3CCN(c4ccc(F)cc4)CC3)c(C)c2c1=O | inconclusive [inhibitor, full curve, poor fit]
O=C(c1cc(C2CC2)nn1-c1ccccc1)N1CCN(S(=O)(=O)c2ccccc2)CC1 | inconclusive [inhibitor, full curve, poor fit]
Cc1ccc(CN2CCN(C3CCCC3)C(CCO)C2)s1 (stereo not given) | inactive
CCOC(=O)c1sc(NC(=O)c2ccc(C)s2)cc1C | inconclusive [inhibitor, full curve, poor fit]

Structure (SMILES) | Potency
CC1(C)S[C@@H]2[C@H](NC(=O)C(C(=O)O)c3ccccc3)C(=O)N2[C@H]1C(=O)O (stereo not given in full) | inactive
CC(c1ccccc1)c1nnc(N)s1 (stereo not given) | inactive
Cc1ccc(C(C)C)c(OCC(=O)Nn2c(C)nc3ccccc3c2=O)c1 | inconclusive [inhibitor, full curve, poor fit]
CN(CC(=O)Nc1ccccc1Cl)C(=O)COC(=O)c1ccc(C(F)(F)F)cc1 | inconclusive [inhibitor, partial curve, poor fit]
COc1ccc(NC(=S)N2CCN(S(=O)(=O)c3ccc(C)cc3)CC2)cc1 | inconclusive [inhibitor, full curve]
CC(=O)Oc1ccc(-c2nc(-c3cccnc3)no2)cc1 | inconclusive [inhibitor, partial curve]
CCN=C1NN=C(c2c[nH]c3ccccc23)CS1 | inactive
CCN(C(=O)CSc1nnc(-c2cc(OC)c(OC)c(OC)c2)o1)c1ccccc1 | inactive
COc1cccc(/C=C2\Oc3cc(OCC(=O)N4CCCCC4)ccc3C2=O)c1OC | inactive
CCSc1nnc(-c2ccc(S(=O)(=O)N3CCCC3)cc2)n1C | inconclusive [inhibitor, partial curve, poor fit]
O=C1ON=C(c2ccccc2)/C1=C/c1ccc(O)c(O)c1 | inactive
O=C(Nc1nccs1)C1CC(=O)N(c2ccccc2)C1 (stereo not given) | inconclusive [inhibitor, single point]
CN(C)S(=O)(=O)c1ccc(C(=O)Nc2ccccn2)cc1 | inconclusive [inhibitor, full curve, poor fit]
COC(=O)c1c(NC(=O)/C=C/C(=O)O)sc(Cc2ccccc2)c1C | inactive
CC(C)Sc1nc(N2CCOCC2)c2c(c1C#N)CC(C)(C)SC2 | inactive
CS(=O)(=O)c1ncc(Cl)c(C(=O)Nc2c(C(=O)Nc3ccccc3)oc3ccccc23)n1 | inactive
O=C(Nc1ccc(-c2ccccc2)cc1)c1ccco1 | inconclusive [inhibitor, full curve]
Cn1c(-[n+]2c(-c3ccccc3)cc(-c3ccccc3)cc2-c2ccccc2)nc2cc([N+](=O)[O-])ccc21 | inactive
CCOC(=O)c1c(C)n(C)c2ccc(OC)c(NC(=O)CN3CCC4(CC3)OCCO4)c12 | inconclusive [inhibitor, partial curve, poor fit]
O=c1[nH][nH]cc1C=Nc1ccc(Cl)cc1 | inconclusive [inhibitor, full curve, poor fit]
COc1ccc(NC(C)C(=O)Nc2cc(C(F)(F)F)ccc2N2CCOCC2)c(OC)c1 (stereo not given) | inconclusive [inhibitor, full curve, poor fit]
Cc1cccc(N2C(=O)CC(N3CCN(c4ccc(Cl)cc4)CC3)C2=O)c1 (stereo not given) | inconclusive [inhibitor, partial curve, poor fit]
CCCC1(C)SC(NC(C)=O)=NN1C(C)=O (stereo not given) | inconclusive [inhibitor, single point]
CCOc1ccc(C(=O)CSc2nnc(C3CC3)n2C)cc1 | inconclusive [inhibitor, single point]

Structure (SMILES) | Potency
COc1cc(C(=O)N2C[C@H]3CC[C@H]2C3)ccc1OC1CCN(C(C)=O)CC1 | inconclusive [inhibitor, full curve]
CC(=O)Nc1ccc(NC(=O)CN(c2ccccc2Cl)S(C)(=O)=O)cc1 | inconclusive [inhibitor, full curve, poor fit]
CCOC(=O)c1c(-c2ccco2)csc1N | inconclusive [inhibitor, partial curve, poor fit]
CCOc1ccc(S(=O)(=O)N2CCCCC2)cc1NC(=O)C1CSC2(C)CCC(=O)N12 (stereo not given) | inconclusive [inhibitor, partial curve, poor fit]
CCCCN(C(=O)c1c(CC)noc1C)c1c(N)n(CC(C)C)c(=O)[nH]c1=O | inconclusive [inhibitor, full curve, poor fit]
COc1ccccc1-n1c(SCC(=O)Nc2ccc3c(c2)OCO3)nc2c(c1=O)SCC2 | inactive
CN1C(=S)SC(C)(C)C1/[N+]([O-])=C/c1cccnc1 (stereo not given) | inconclusive [inhibitor, full curve, poor fit]
CCn1c2c(c3cc(OCC(C)C)ccc31)CCCC2=O | inconclusive [inhibitor, partial curve]
CC(C)n1cnc2c(NCc3ccccc3)cc(Cc3ccc(F)cc3)cc21 | inactive
COC(=O)CN(n1cnnc1)S(=O)(=O)c1ccccc1 | inactive
C=CCNC(=O)C1CC2Cn3c(nc4cc(Cl)c(Cl)cc43)C2N1C (stereo not given) | inactive
CCOc1ccc(CNC(=O)c2ccc3c(c2)N(CC)CCS3)cc1 | inconclusive [inhibitor, full curve, poor fit]
O=C(Cn1ncc2c3ccccc3n(Cc3ccc(F)cc3)c2c1=O)N1CCN(c2ncccn2)CC1 | inconclusive [inhibitor, partial curve, poor fit]
Cc1ccc(/C=N/Nc2ccc(F)cc2)s1 | inactive
N#Cc1ccc(OCC(=O)OCC(=O)Nc2ccc(N3CCOCC3)cc2)cc1 | inconclusive [inhibitor, partial curve, poor fit]
Cc1ccsc1/C=N\NC(=O)Cn1nnc2ccccc21 | inactive
Cc1ccc(SC(=O)COc2ccccc2C)cc1 | inactive
Cc1cc(/C=N/n2cnnc2)c(C)n1-c1ccc(Cl)cc1 | inactive
Cc1oc(-c2ccccc2F)nc1CSCC(=O)N1CCN(c2ccccc2)CC1 | inconclusive [inhibitor, full curve, poor fit]
CC(C)(O)C#Cc1ccc(CN2CCCC(CNC(=O)c3ccco3)C2)cc1 (stereo not given) | inconclusive [inhibitor, partial curve]
COc1cccc(N(Cc2nnc3n2CCCCC3)C(=O)Nc2ccccc2)c1 | inconclusive [inhibitor, full curve, poor fit]
CC(C)(C)SCCNC(=O)/C=C/c1cccc([N+](=O)[O-])c1 | inconclusive [inhibitor, partial curve]
